Out of some 310,000 compounds screened, about 2,200 (0.71%) showed an effect of 50% or more. The effect is printed as a negative number. This is one part of the list.
The compounds below were run against human ether-à-go-go-related gene (hERG) potassium channel (human, UniProt Q12809) (assay: primary screen, population patch clamp on CHO cells stably expressing hERG).
Chain of human ether-à-go-go-related gene (hERG) potassium channel (Q12809 whole entry, looked up): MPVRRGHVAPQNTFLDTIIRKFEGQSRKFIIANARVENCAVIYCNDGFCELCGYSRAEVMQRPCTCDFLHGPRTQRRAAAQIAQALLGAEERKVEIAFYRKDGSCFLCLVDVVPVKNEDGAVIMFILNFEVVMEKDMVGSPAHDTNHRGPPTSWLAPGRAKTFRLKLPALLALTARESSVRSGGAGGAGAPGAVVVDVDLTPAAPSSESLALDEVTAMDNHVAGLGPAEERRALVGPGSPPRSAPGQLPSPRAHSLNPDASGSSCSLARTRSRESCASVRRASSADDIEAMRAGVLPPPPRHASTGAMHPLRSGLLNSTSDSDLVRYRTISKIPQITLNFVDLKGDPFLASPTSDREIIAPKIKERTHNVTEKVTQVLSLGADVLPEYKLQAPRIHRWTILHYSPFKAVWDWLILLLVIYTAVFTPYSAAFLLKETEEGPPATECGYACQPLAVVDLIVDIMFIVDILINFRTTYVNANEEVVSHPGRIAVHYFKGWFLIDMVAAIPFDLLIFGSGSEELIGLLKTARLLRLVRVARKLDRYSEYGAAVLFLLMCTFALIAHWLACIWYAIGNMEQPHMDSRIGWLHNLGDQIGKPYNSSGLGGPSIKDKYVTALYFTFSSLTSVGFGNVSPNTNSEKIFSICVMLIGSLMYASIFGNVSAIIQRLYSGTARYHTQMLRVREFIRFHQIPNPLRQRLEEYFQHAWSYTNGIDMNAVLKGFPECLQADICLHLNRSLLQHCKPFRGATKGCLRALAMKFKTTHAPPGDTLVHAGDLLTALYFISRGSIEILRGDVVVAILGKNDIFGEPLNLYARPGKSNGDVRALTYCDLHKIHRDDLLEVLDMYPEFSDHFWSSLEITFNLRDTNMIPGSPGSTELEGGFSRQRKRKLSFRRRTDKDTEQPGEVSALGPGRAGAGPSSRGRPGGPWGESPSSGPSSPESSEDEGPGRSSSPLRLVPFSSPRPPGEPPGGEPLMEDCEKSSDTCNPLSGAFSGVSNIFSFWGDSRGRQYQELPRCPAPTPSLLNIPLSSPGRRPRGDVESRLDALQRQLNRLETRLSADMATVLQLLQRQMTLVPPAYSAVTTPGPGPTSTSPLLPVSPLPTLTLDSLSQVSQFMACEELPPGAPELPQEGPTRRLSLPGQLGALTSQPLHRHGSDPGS

In order of falling “hERG current change (%, negative = inhibition) at 1uM” value:
1. Cc1ccc(-c2[nH]c3cc(C(N)=O)ccc3c(=O)c2O)cc1  16.6%
2. Cc1ccc(C(=O)NCCN2CCOCC2)cc1  16.3%
3. CCOC(=S)SCC(=O)N1CCc2ccccc2C1C1C(=O)CCCC1=O (stereo not shown)  15.6%
4. Oc1ccccc1-c1cc(-c2ccc(Cl)cc2)n[nH]1  15%
5. COc1cc(C2C3=C(CC(C)(C)CC3=O)N(C)C(=O)N2C)cc(OC)c1OC (stereo not shown)  11.8%
6. CCOC(=O)c1sc(=S)n(C)c1C  11.3%
7. Cc1cccc(N2C(=O)CC(N3CCN(C(=O)c4ccccc4)CC3)C2=O)c1 (stereo not shown)  11.1%
8. CCN(CC)C(=O)C(Oc1ccc(S(=O)(=O)N2CCCC2)cc1[N+](=O)[O-])c1ccccc1 (stereo not shown)  10.9%
9. COc1ccc(CC(=O)NNS(=O)(=O)c2ccc(F)cc2)cc1OC  9.99%
10. COc1cccc(C(C(=O)NC2CCCCC2)N(Cc2ccco2)C(=O)c2ccccn2)c1 (stereo not shown)  9.22%
11. COc1ccccc1CNC(=O)COC(=O)Cc1ccc(F)cc1  8.2%
12. O=C(CCc1ccccc1)NCc1ccc(F)cc1  6.51%
13. COc1ccc(CCN(C)C(=O)C23CC4CC(CC(Cl)(C4)C2)C3)cc1OC  6.42%
14. S=c1[nH]ncn1-c1ccccn1  5.37%
15. CCS(=O)(=O)N1CCN(c2ccc([N+](=O)[O-])c(NCC3CCCO3)c2)CC1 (stereo not shown)  4.52%
16. COc1cccc(N2CCN(C(=O)Cn3c(=O)oc4ccccc43)CC2)c1  4.28%
17. O=C(NCCN1CCOCC1)c1cn(CCc2ccccc2)nn1  1.7%
18. Cc1ccc(S(=O)(=O)N2CCN(Cc3cc(=O)n4ccccc4n3)CC2)cc1C  0.238%
19. Cc1ccc(-c2noc(CCCC(=O)Nc3cccnc3)n2)cc1  -3.19%
20. COc1ccccc1C(=O)O/N=C(\N)c1ccc(Cl)cc1  -5.06%
21. O=C(CCCOc1ccccc1)N1CCN(C(=O)c2ccco2)CC1  -5.16%
22. CN(c1ccc(C(=O)Nc2ccccc2Sc2ccccc2)cc1)S(C)(=O)=O  -5.55%
23. CCOC(=O)c1[nH]c2ccccc2c1NC(=O)CN1CCCCC1  -5.66%
24. CS(=O)(=O)Nc1ccc(C2=NN(S(C)(=O)=O)C(c3cccs3)C2)cc1 (stereo not shown)  -16.1%
25. Cc1ccc2[nH]c(=O)c(CN(CCCN(C)C)C(=O)Nc3cccc(Cl)c3)cc2c1  -26.3%

From paper PMC4336329 (PLoS ONE, 2015)
